Measured values reported in the RNAGym collection of RNA variant scans (doi:10.7554/elife.90254).
Read counts are not given, so values of variants with three or more changes are uncertain.

B1: LINE1-mini (parent)
chain: GGCAGAGCUCAACACAGCGUGGCAAAGUGGCUGUGGCUAGACUGCC

Variants of: B1
Assay: self-cleavage, relative activity (ratio to wild type); higher = more cleavage; in vitro, sequencing; the parent is a self-cleaving ribozyme

Variant	self-cleavage
C8U A12U A26C	0.18
A14C G17A G33A	0.03
A16G C18G C37U U38G	0
A4U U28A G29U G35U G40U C45A	0.02
A14C A24G C31G G35C U38G	0.01
A12G G17U U43G	0
G27A G30C A41U	0.15
G2C G17U C18U G33A	0.02
G21U U38G C46A	0.03
C13A U38C G44A	0.01
G19U G27A C37A A39C	0.02
C8A U20C U38G	0.07
C8G A16G G17A U38A	0.01
A26G C42U C46U	0.2
U9C G33A U34G	0.02
A11C C23G C42G	0
C10A G29U C31U U43A	0.01
C3A A12C C37A	0.15
G22C U34A C42G	0.03
C3G U9C C10G A16G C23A C31A A39U	0.01
U20G G21A C23G	0.38
G17A G30A C37U	0.13
G7C A12U U38C	0.13
A6C A12C G17C	0.02

Variant	self-cleavage
G5U C8U C13U G29U	0.5
G5U C18A A41G	0.02
C3A C8A G27U	0.5
G29A C31A G40C	0.1
G1U C3A C23U A26C C37U	0.06
G19U G29U G30U G36U C46A	0.03
C10U C31G G44A C46U	0.03
C13A U20G A24U G30C	0.09
G2U C3G A14G G33C	0.02
A11C A26U C31U	0.01
A14U A16C G33U G36A	0.03
U9A C42G C45G	0.13
A24C G35A A39C	0.08
A4G A24U G27U	0.34
C13G G27U U28A C37U	0.1
G1C U20G C23G G30A	0.04
A14U C31A A39G	0.02
G1A G2A G19A G29U	2.02
A11G G22C G27U G30A U34A	0.04
A16G G35U G36A	0.08
A6U C10A C18G	0.05
G1U G21U C23A U32C	0.78
C10G G29A U38A C42A C46U	0.01
G7U G27A U38G	0.01

Variant	self-cleavage
G7A G19C A25G C42G	0.02
G7A C8U C15A C18U C42A	0.43
C15U G19U U20G	0.28
C18G G21U G22A	0.22
G1C C8U C23U G36C	0.03
C3A C8U C13U G44A	1.02
A4U C13A G35U G40A G44C	0.05
G1A U43A C45U C46G	0.06
G19U A25U G36U	0.02
A6U A12U U20G G29A	0.09
A39C A41G G44A	0.1
G1U G21A G44U C46U	1.2
G2C U9C C13A	0.09
C10G U32A A41G	0
C23A G33A U34G A39U	0.06
A16G C23G A24C	0.03
A6C C13A C31U	0.01
A6C G22C A24U	0.14
C8U U9A G19A	0.32
A14G G21A U34A U43C	0
C3G G5C G17U U20G A25G G29C C31U	0.52
U20G G30U C45U	0.34
A6C U9G C13G G35U	0.04
G2C G27A U38A C42G	0.08

Variant	self-cleavage
C18G G22U A24U A25C	0.09
G2A C10A G36U G44U	0.03
U32C G36A G44U	0.04
A12G G19U C42G C45G	0.01
A16C G21C G27A U43A	0.21
G33C C37A A41U	0.03
U28G G35U A39U	0.04
C8G G22A A25C	0.02
A11G A12G G30U C31U	0.01
A12C G40A U43C	0.1
G1A C18A U20G G40C	0.01
G7C U9A C37G	0.04
G7U A26U C31G	0.05
G5U U9G A39U	0.16
G21U G33A U38C	0.02
G1A C15U U32G	0.08
U20G G21U G27C A41C C46A	0.03
U9A C15A G17A C18U G35C	0.04
C18G G22A A25U G35A A41G	0.02
C10A C15A G21U G29C A41C	0
C3U A25C C42A	0.11
C13A A16C G22A	0.04
C15G C23U C45G	0.01
G27U U34A C37U G44U	0

Variant	self-cleavage
A6G C15A U20A G33U	0.02
C3U G5U U9C C10U	0.03
G22U G27C G29A	2.07
C13A G21U G44U	0.07
C15U G19A C31G U32A	0.02
A4C G21U U28G	0.02
C10A A16C G30A C31U G40U	0.02
C18G G29U A41C	0.1
C3U U20A C37U	0.06
G7C C8U C15A C18A A26G	0.16
A4C G7A U9G C10U U28C	0.05
A4U G7A G30U G33U	0.45
G5C C13A C37A C45G	0.5
A12C C15A A39G	0.07
G7A C8U C10A A12U G22U	0.02
C23G G40A C42A C46U	0
C15G G29C G36A	0.03
A11C G22U G44A	0.01
C13U A16G G44U	0.02
G1U C8G A12U G19C A41C	0.03
U28G G29C G30C	0.2
A4G A12U C18A	0.03
G21A G36A U38G	0.03
A11U A12G U32C C37A	0.01

Variant	self-cleavage
C13U G21A C23U G35U	0.09
A11G G17C U20G	0.03
G5A C15A G17A G29A A41U	0.03
G19U A24C A25U U34A	0.05
C3U G19A G33U A39C U43A	0.03
C13A A24U G36U	0.88
G5U G27U U43G G44C	0
A4G A12U A14G	0.06
A16C C31G G40U C45G	0.01
C3G A24G U43A	0.34
C10A G21A G30C G40A	0
C3G A4U U34A C45A	0.01
G5A G29A C46U	0.06
G2C G21U A39G	0.02
G2U A26U G27U U43G	0.01
A12U C23G G40C	0.04
G7A C10U U20G G21U A24C G36U	0.02
G2U A11C A12C C46A	0.01
G5U C18A U34C	0.19
C3A G21C U28G C45U	0.25
C10G A11C G22A	0.02
G5U C13U U32A	0.02
G5A G36U C42U	0.02
G7U C8G G35A	0.48

Variant	self-cleavage
G1U A6U G40A	0.06
C3G U20A U34G G40A C46A	0.03
G5U A26G U28G U38C	0.06
C15U G29C C31A U34G	0.09
C8G C10A U20C	0
C8A U38A A41C	0.28
C3A G7U G33A	0.22
U9G C31U A39C	0
A11C A25G U43A	0.01
G2A C15A G36A A39G	0.21
C10U A14U G29A U32C	0.07
A6C C10U A14U	0.17
G7U U9C C18U A24G C46A	0.01
C3A C8G U9G C18A A25U G44A	0.02
G2A C37A U43A	0.25
G29U G36A U38A A39G G40A C42A	0.02
C15U G17A G29A	0.15
A6U A14U G19C G29A G33A U38A	0.01
G2C C13A G29U U32G	0.07
A26G U32C C37U	0.02
A6C C10U U34A	0.05
G5A A6G U20C G21C	0.01
A6G A12G G22C	0.02
